The whole screen tested about 360,000 compounds, of which about 11,000 (3.1%) were called active. The shares of active, inactive and inconclusive entries below differ from those in the screen. The call rests on the fitted dose curve; in most records, active means well fitted inhibition curve with a large enough effect; inconclusive means small, poorly fitted or top-dose-only effect; inactive means no such curve, though single readings can be large or run the other way. Potencies of inconclusive entries are left out as doubtful fits.
What follows are compounds tested against Schistosoma mansoni thioredoxin glutathione reductase (TGR) (UniProt Q962Y6) (assay: qHTS Assay for the Inhibitors of Schistosoma Mansoni Peroxiredoxins). Settings: purified TGR, DTNB reduction, TNB absorbance 405 nm; activity change, negative = inhibition: at 114 µM (top of the series) unless noted.
Summary of the method: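 TGR 20 nM + NADPH 100 uM (dispensed conc.), cpd preinc 15 min RT; start with NADPH (500 uM addition) then DTNB (15 mM addition). Kinetic TNB absorbance, 405 nm filter. Four-parameter Hill fit across titration.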
With `CCCn1c(SCC(=O)NCCc2ccccc2)nnc1-c1cccnc1` the Potency was inconclusive [inhibitor, single point]. With `CCCNC(=O)c1ccc(C2SCC(=O)N2Cc2ccccc2)cc1` (stereo not drawn) the Potency was inconclusive [inhibitor, single point]. `COC(=O)CN1C(=O)[C@H]2[C@@H](c3ccc(C)o3)N3C(=O)CN(Cc4ccccc4)C(=O)[C@@]3(Cc3ccccc3)[C@H]2C1=O` was tested, and the Potency was inconclusive [inhibitor, partial curve]. With `CC(C)N1C/C(=C/c2cccnc2)C(=O)/C(=C/c2cccnc2)C1` the Potency was inconclusive [inhibitor, partial curve, poor fit]. For `COc1ccc(OC)c(-c2nnc(-c3ccc(C)o3)o2)c1`, the Potency was inconclusive [inhibitor, partial curve]. `O=C(NCc1cccnc1)c1ccc(COc2cccc3ccccc23)o1` was tested, and the Potency was inconclusive [inhibitor, partial curve]. For `O=C(CN1CCN(CN2C(=O)NC3(CCCCCC3)C2=O)CC1)Nc1ccc(F)cc1`, the Potency was inconclusive [inhibitor, partial curve]. `Cc1cc(/C=C2\C(=N)N3N=C(c4ccco4)SC3=NC2=O)c(C)n1Cc1ccccc1` was tested, and the Potency was inconclusive [inhibitor, partial curve]. `CC(=O)Nc1sc2c(c1C(c1cccs1)N1CCOCC1)CCCC2` (stereo not drawn) was tested, and the Potency was active: 22.4 µM. With `CS(=O)(=O)c1ccc(Sc2nc3ccccc3s2)c([N+](=O)[O-])c1` the Potency was inconclusive [inhibitor, partial curve]. With `Cc1ccnc(NC(c2ccncc2)c2c(C)[nH]c3ccccc23)c1` (stereo not drawn) the Potency was active: 2 µM. With `Cc1onc(-c2ccccc2)c1C(=O)NC(=S)Nc1sc2c(c1C#N)CCCC2` the Potency was inconclusive [inhibitor, full curve, poor fit]. For `COc1ccc(N/C(=C/[N+](=O)[O-])SC)cc1`, the Potency was inconclusive [inhibitor, full curve, poor fit]. In the case of `COC(=O)/C=C\C(=O)Nc1cccc([N+](=O)[O-])c1`, the Potency was active: 0.794 µM. In the case of `COc1ccccc1N=NC1C(=O)N(C(N)=S)N=C1C` (stereo not drawn), the Potency was inconclusive [inhibitor, full curve]. With `CCOc1ccc2c(c1)C(C)=CC(C)(C)N2` the Potency was inconclusive [inhibitor, single point]. In the case of `O=C(NCc1ccco1)C(c1cccs1)N(C(=O)C1COc2ccccc2O1)c1cccc(O)c1` (stereo not drawn), the Potency was active: 35.5 µM. `COc1ccccc1CCN1COc2c(cc3c(C)c(C)c(=O)oc3c2C)C1` was tested, and the Potency was inconclusive [inhibitor, partial curve]. With `N#Cc1ccc(N2C(=O)[C@@H]3C(C(=O)c4ccc5ccccc5n4)=NN[C@@H]3C2=O)cc1` the Potency was active: 50.1 µM. In the case of `Cc1cccc(N2C(=O)CSC23C(=O)N(CC(=O)Nc2cccc(Cl)c2)c2ccccc23)c1` (stereo not drawn), the “activity change, negative = inhibition” value was inactive: -10.7%. With `O=C(NCc1ccco1)c1ccc(Cl)c(S(=O)(=O)N2CCCC2)c1` the Potency was inconclusive [inhibitor, partial curve]. `CCCn1c(C)cc(C(=O)COc2ncnc3sccc23)c1C` was tested, and the Potency was inconclusive [inhibitor, full curve, poor fit]. For `O=C(Nc1ccccc1)C1=C[C@H](c2ccc3c(c2)OCO3)C[C@H](OCCCCO)O1`, the Potency was inconclusive [inhibitor, partial curve]. For `COc1ccccc1NC1=C(N2CCCCC2)C(=O)c2ccccc2C1=O`, the Potency was inconclusive [inhibitor, partial curve]. In the case of `C/C(=N\OC(=O)c1c(-c2c(F)cccc2Cl)noc1C)c1nccs1`, the “activity change, negative = inhibition” value was inactive: 7.03%. With `O=C(/C=C/c1ccc2c(c1)OCO2)c1cccnc1` the Potency was inconclusive [inhibitor, full curve, poor fit]. With `COC(=O)N1C(=O)[C@@](c2ccccc2)(C(C)C)N1C(=O)OC` the Potency was active: 35.5 µM. For `O=C(N/N=C/C(Cl)=C/c1ccccc1)c1ccc2c(c1)OCO2`, the Potency was inconclusive [inhibitor, partial curve]. In the case of `CC(=O)c1ccc(NC(=O)c2noc3c2CCC3)cc1`, the Potency was active: 39.8 µM. In the case of `COCc1cc(CN2CCN(C)CC2)c(O)c2ncccc12`, the Potency was active: 14.1 µM. `COC(=O)c1cc(CSc2nc3ccc(C)cc3[nH]2)oc1C` was tested, and the Potency was inconclusive [inhibitor, partial curve]. With `O=C(CCS(=O)(=O)c1ccc(Br)cc1)N1CCN(Cc2ccccc2)CC1` the Potency was inconclusive [inhibitor, full curve]. In the case of `C#CCOCCOCCOCCNc1nc(N2CCN(C(=O)CCCCCCCCCCNC(=O)Cn3cc(CCCCCN)nn3)CC2)nc(N2CCN(C(=O)CCCCCCCCCCNC(=O)[C@@H](CCC(=O)O)n3cc(CCCCCN)nn3)CC2)n1`, the Potency was active: 50.1 µM. `O=[N+]([O-])c1ccc(/C=C2\CCC(C3=CCCC3)=C2N2CCOCC2)cc1` was tested, and the Potency was active: 31.6 µM. For `Cc1noc(C)c1COC(=O)c1ccc(S(=O)(=O)NCc2ccco2)cc1`, the Potency was active: 39.8 µM. For `O=C(/C=C/Sc1ccccc1)c1ccc(Cl)cc1`, the Potency was active: 31.6 µM. For `COc1ccc(CN(C(=O)c2ccco2)c2ccc(Br)cc2)cc1OC`, the “activity change, negative = inhibition” value was inactive: -12%. For `O=C(NCc1ccncc1)c1cccc(S(=O)(=O)N2CCc3ccccc32)c1`, the Potency was active: 28.2 µM. For `Cc1oc(-c2ccoc2)nc1CN(Cc1ccccc1)CC1CC1`, the Potency was inconclusive [inhibitor, partial curve]. `Cc1ccc(SCC(=O)c2c(C)[nH]c3ccccc23)cc1` was tested, and the “activity change, negative = inhibition” value was inactive: -3.06%. With `CCCCOc1ccc(/C(O)=C2/C(=O)C(=O)N(CCN(C)C)C2c2ccc(O)c(OC)c2)cc1` (stereo not drawn) the Potency was inconclusive [inhibitor, partial curve]. For `CN1C(=O)C2(Oc3ccccc3C3CC(c4ccccc4)=NN32)c2ccccc21` (stereo not drawn), the Potency was inconclusive [inhibitor, partial curve]. For `COc1cc(OC)c(OC)cc1/C=C/C(=O)c1ccc(NS(=O)(=O)c2ccc(C)cc2)cc1`, the “activity change, negative = inhibition” value was inactive: -3.96%. In the case of `COC(=O)[C@@]12CCCN1[C@H](c1ccc(-c3ccc(Cl)c(Cl)c3)cc1)[C@H]1C(=O)N(C)C(=O)[C@H]12`, the Potency was inconclusive [inhibitor, full curve, poor fit]. In the case of `Cc1ccc(S(=O)(=O)Nc2ccc(O)c3ccccc23)c(C)c1`, the Potency was active: 8.91 µM. In the case of `CCCN(CC(=O)Nc1ccc(F)c(F)c1F)C(=O)C1=COCCO1`, the “activity change, negative = inhibition” value was inactive: -2.52%. `O=C(C1=C(O)C(=O)N(CCCN2CCOCC2)C1c1ccc(Cl)cc1)c1cc2ccccc2o1` (stereo not drawn) was tested, and the Potency was inconclusive [inhibitor, partial curve]. `Cc1ccc(-n2nc3c(=O)n(CCCC(=O)N4CCC(C)CC4)nc(C)c3c2C)cc1` was tested, and the “activity change, negative = inhibition” value was inactive: -0.266%. With `Cc1ccc(/C=c2\sc3nc(-c4ccccc4Br)nn3c2=O)o1` the Potency was active: 44.7 µM. With `Cc1ccc(S(=O)(=O)NC(CC(=O)N2CCC3(CC2)OCCO3)c2ccco2)cc1` (stereo not drawn) the Potency was inconclusive [inhibitor, single point]. For `Cc1ccc(C)c(C(=O)CCC(=O)N2CCN(c3ncccn3)CC2)c1`, the “activity change, negative = inhibition” value was inactive: 12.9%. With `CC(C)Cn1cc(NC(=O)N2CCN(c3cccc(Cl)c3)CC2)c2ccccc2c1=O` the Potency was inconclusive [inhibitor, single point]. `COc1cccc(N2CCN(C3CC(=O)N(c4ccc(Cl)cc4)C3=O)CC2)c1` (stereo not drawn) was tested, and the Potency was active: 39.8 µM. `CCOc1ccc2[nH]c(=O)c(C(c3nnnn3Cc3ccco3)N3CCN(C)CC3)cc2c1` (stereo not drawn) was tested, and the Potency was inconclusive [inhibitor, partial curve]. In the case of `COc1ccc(CCNC(=O)C(=O)Nc2ccccc2F)cc1`, the Potency was inconclusive [inhibitor, partial curve]. For `CC(C)(C)n1ncc2c(=O)n(CC(=O)c3ccccc3)cnc21`, the Potency was inconclusive [inhibitor, single point]. For `CCOc1ccccc1N/C(=C(/C(Cl)=C(Cl)Cl)[N+](=O)[O-])n1cncn1`, the Potency was active: 6.31 µM. `C[C@@H](C(O)c1ccccc1)N(C)C(=O)CCc1ccccc1` (stereo partly drawn) was tested, and the Potency was inconclusive [inhibitor, full curve, poor fit]. With `O=C(NC1CCCCC1)N(CCN1CCCC1)Cc1cc2cc3c(cc2[nH]c1=O)OCCO3` the Potency was inconclusive [inhibitor, partial curve]. With `COc1ccc(-n2nc3c(c2NC(=O)c2ccco2)CS(=O)(=O)C3)cc1` the Potency was active: 44.7 µM. With `CN1C(=O)/C(=C\c2ccc(N3CCCCC3)o2)C(=O)NC1=S` the Potency was inconclusive [inhibitor, partial curve]. `O=C(c1ccccc1)N1CCN(CCc2ccncc2)CC1` was tested, and the Potency was inconclusive [inhibitor, partial curve]. For `COC(=O)c1cccc(Cn2c(Cl)c(/C=N/Nc3ccccc3C)sc2=O)c1`, the Potency was active: 7.94 µM. `CS(=O)(=O)NCCC1=CCCCC1` was tested, and the Potency was inconclusive [inhibitor, partial curve]. In the case of `Cc1cc(-c2nc3c4c5c(sc4[nH]c(=O)n3n2)CCC5)c(C)o1`, the Potency was inconclusive [inhibitor, partial curve]. With `COc1cc(CN2CCC(C(=O)N3CCN(c4ccccc4F)CC3)CC2)ccc1O` the Potency was inconclusive [inhibitor, single point]. `O=C(COC(=O)/C=C/c1ccco1)NCc1ccc2c(c1)OCO2` was tested, and the Potency was active: 35.5 µM. In the case of `O=C(O)c1cccnc1SC1CC(=O)N(c2cccc3ccccc23)C1=O` (stereo not drawn), the Potency was inconclusive [inhibitor, partial curve].

From PubChem BioAssay AID485364 (National Center for Advancing Translational Sciences (NCATS), 2010)
Further: nearly all actives have a fitted effect of over 60% in size.
On the % scale 0 is the no-effect control and ±100 the full control effect; potency means the concentration at half of the fitted maximal effect; tags describe the fitted curve by direction and shape.
